The text below walks through data of US20050004163A1, “3-(diarylmethylene)-8-azabicyclo[3.2.1]octane derivatives” (priority 2000, published 2005).

Counter-ions that a name gives are not always drawn.

The target in one assay is T1, δ-opioid receptor (Rattus norvegicus, UniProt P33533).
T1 construct: the forebrains are homogenized in Tris buffer in a Teflon®-glass homogenizer; from tissue; host or cells: forebrain of male Wistar rats (particulate membrane preparation)
T1 sequence (P33533 whole entry): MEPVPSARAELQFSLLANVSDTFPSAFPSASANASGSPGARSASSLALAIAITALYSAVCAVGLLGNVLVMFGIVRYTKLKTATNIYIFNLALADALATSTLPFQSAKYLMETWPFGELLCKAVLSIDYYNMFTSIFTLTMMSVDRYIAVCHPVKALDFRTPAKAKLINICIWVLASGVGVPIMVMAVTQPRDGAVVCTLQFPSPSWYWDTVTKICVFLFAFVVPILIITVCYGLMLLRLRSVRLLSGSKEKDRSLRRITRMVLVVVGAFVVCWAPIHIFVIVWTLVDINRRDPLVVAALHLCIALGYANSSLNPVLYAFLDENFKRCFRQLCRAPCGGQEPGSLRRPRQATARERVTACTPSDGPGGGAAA
Conditions: DOR binding Ki, rat brain δ opioid receptor binding; 10 nM solutions of the compounds.
As usually defined, the Ki is a measure of affinity in units of concentration, obtained from inhibition or displacement. As to `CCNC(=O)c1ccc(C=C2C[C@H]3CC[C@@H](C2)N3CCc2ccccc2)cc1` (single isomer, unassigned) [Cpd 41, (+)—N-Ethyl-4-(8-phenethyl-8-aza-bicyclo[3.2.1]oct-3-ylidenemethyl)-benzamide], the Ki stood at 163 nM.
Same read-out and setting: the value for `CCNC(=O)c1ccc(C=C2C[C@H]3CC[C@@H](C2)N3CCc2ccccc2)cc1` (single isomer, unassigned) [Cpd 42, (−)—N-Ethyl-4-(8-phenethyl-8-aza-bicyclo[3.2.1]oct-3-ylidenemethyl)-benzamide] was 100000 nM.
Molecule `CCNC(=O)c1ccc(C(Br)=C2C[C@H]3CC[C@@H](C2)N3)cc1` (single isomer, unassigned) [Cpd 92] registered a Ki of 168 nM.
With `CCNC(=O)c1ccc(C(=C2C[C@H]3CC[C@@H](C2)N3Cc2ccsc2)c2ccc(CO)cc2)cc1` (single isomer, unassigned) [Cpd 196, N-Ethyl-4-[(4-hydroxymethyl-phenyl)-(8-thiophen-3-ylmethyl-8-aza-bicyclo[3.2.1]oct-3-ylidene)-methyl]-benzamide], the affinity corresponds to a Ki of 0.56 nM.
On the same count and under the same terms, the figure for `CCNC(=O)c1ccc(C(=C2CC3CCC(C2)N3)c2nnn[nH]2)cc1` (single isomer, unassigned) [Cpd 201] is 10000 nM.
On the same count and under the same terms, the value for `CCNC(=O)c1ccc(C(=C2CC3CCC(C2)N3Cc2ccco2)c2nnn[nH]2)cc1` (single isomer, unassigned) [Cpd 203] was 284 nM; that for `CCNC(=O)c1ccc(C(C#N)=C2CC3CCC(C2)N3Cc2ccoc2)cc1` (single isomer, unassigned) [Cpd 209] was 0.94 nM.
The same measure, in the same setting: the value for `CCNC(=O)c1ccc(C(C#N)=C2CC3CCC(C2)N3Cc2ccoc2)cc1` (single isomer, unassigned) [Cpd 210] was 1.1 nM; that for `CCNC(=O)c1ccc(C(Br)=C2CC3CCC(C2)N3Cc2ccoc2)cc1` (single isomer, unassigned) [Cpd 211] was 0.27 nM; that for `CCNC(=O)c1ccc(C(Br)=C2CC3CCC(C2)N3Cc2ccoc2)cc1` (single isomer, unassigned) [Cpd 212] was 28.4 nM.
For the molecule `CCNC(=O)c1ccc(C(=C2CC3CCC(C2)N3Cc2ccsc2)c2cccc(-c3nnn[nH]3)c2)cc1` (single isomer, unassigned) [Cpd 215], affinity was put at a Ki of 30.8 nM.
Still for that read-out and setting: the figure for `CCNC(=O)c1ccc(C(=C2CC3CCC(C2)N3Cc2ccsc2)c2cccc(-c3nnn[nH]3)c2)cc1` (single isomer, unassigned) [Cpd 216] is 0.68 nM.
Molecule `CCNC(=O)c1ccc(C(=C2C[C@H]3CC[C@@H](C2)N3C(=O)Cc2ccccc2)c2cccnc2)cc1` (single isomer, unassigned) [Cpd 217] yielded a Ki of 10000 nM.
Same read-out and setting: the value for `CCNC(=O)c1ccc(C=C2CC3CCC(C2)N3CC(N)Cc2ccccc2)cc1` (stereo not drawn) [Cpd 1, 4-[8-(2-Amino-3-phenyl-propyl)-8-aza-bicyclo[3.2.1]oct-3-ylidenemethyl]-N-ethyl-benzamide Hydrochloride] was 407 nM; that for `CCNC(=O)c1ccc(C(=C2CC3CCC(C2)N3Cc2ccc3ccccc3n2)c2cccc(F)c2)cc1` [Cpd 3] was 9.3 nM.
The same measure, in the same setting: the value for `CCNC(=O)c1ccc(C(=C2CC3CCC(C2)N3Cc2ccc(NC(C)=O)cc2)c2ccc3c(c2)OCO3)cc1` [Cpd 5] was 49.2 nM; that for `CCNC(=O)c1ccc(C(=C2CC3CCC(C2)N3Cc2ncc[nH]2)c2ccc3c(c2)OCO3)cc1` [Cpd 6] was 9.96 nM; that for `CCNC(=O)c1ccc(C(=C2CC3CCC(C2)N3Cc2ccco2)c2ccc3c(c2)OCO3)cc1` [Cpd 8] was 2.26 nM.
The same measure, in the same setting: the figure for `CCNC(=O)c1ccc(C(=C2CC3CCC(C2)N3Cc2ccc3ccccc3n2)c2ccc3c(c2)OCO3)cc1` [Cpd 9] is 13.9 nM.
`CCNC(=O)c1ccc(C(=C2CC3CCC(C2)N3Cc2[nH]cnc2C)c2ccc3c(c2)OCO3)cc1` [Cpd 11] returned a Ki of 33.9 nM.
Consider `CCNC(=O)c1ccc(C(=C2CC3CCC(C2)N3Cc2sccc2C)c2ccc3c(c2)OCO3)cc1` [Cpd 12], for which the Ki worked out at 14.3 nM.
Regarding `CCNC(=O)c1ccc(C(=C2CC3CCC(C2)N3Cc2ccc(NC(C)=O)cc2)c2cnc3ccccc3c2)cc1` [Cpd 14], the Ki came out at 401 nM.
Same read-out and setting: the figure for `CCNC(=O)c1ccc(C(=C2CC3CCC(C2)N3Cc2ccoc2)c2cnc3ccccc3c2)cc1` [Cpd 17] is 4.04 nM.
Same read-out and setting: the figure for `CCNC(=O)c1ccc(C(=C2CC3CCC(C2)N3Cc2sccc2C)c2cnc3ccccc3c2)cc1` [Cpd 18] is 19.1 nM; for `CCNC(=O)c1ccc(C(=C2CC3CCC(C2)N3Cc2ccc3ccccc3n2)c2cccc(C#N)c2)cc1` [Cpd 20] it is 4.73 nM; for `CCNC(=O)c1ccc(C(Br)=C2CC3CCC(C2)N3Cc2ncc[nH]2)cc1` [Cpd 22] it is 48.3 nM.
Still for that read-out and setting: the value for `CCNC(=O)c1ccc(C(Br)=C2CC3CCC(C2)N3Cc2ccoc2)cc1` [Cpd 26] was 0.77 nM; that for `CCNC(=O)c1ccc(C(Br)=C2CC3CCC(C2)N3Cc2[nH]cnc2C)cc1` [Cpd 27] was 134 nM; that for `CCNC(=O)c1ccc(C(=C2CC3CCC(C2)N3Cc2ccc3ccccc3n2)c2cnccn2)cc1` [Cpd 30] was 20.4 nM.
The molecule `CCNC(=O)c1ccc(C=C2CC3CCC(C2)N3Cc2ccc(NC(C)=O)cc2)cc1` [Cpd 31] had a Ki of 59.2 nM.
On the same count and under the same terms, the figure for `CCNC(=O)c1ccc(C=C2CC3CCC(C2)N3Cc2ccsc2)cc1` [Cpd 33] is 238 nM.
On the same count and under the same terms, the figure for `CCNC(=O)c1ccc(C=C2CC3CCC(C2)N3Cc2ccco2)cc1` [Cpd 34] is 281 nM; for `CCNC(=O)c1ccc(C=C2CC3CCC(C2)N3Cc2[nH]cnc2C)cc1` [Cpd 37] it is 5490 nM.
`CCNC(=O)c1ccc(C(Br)=C2CC3CCC(C2)N3Cc2cccs2)cc1` [Cpd 40] showed a Ki of 14.4 nM.
On to `CCNC(=O)c1ccc(C(=C2CC3CCC(C2)N3CC#N)c2ccccc2)cc1` [Cpd 43, 4-[(8-Cyanomethyl-8-aza-bicyclo[3.2.1]oct-3-ylidene)-phenyl-methyl]-N-ethyl-benzamide], for which the Ki was found to be 86.3 nM.
On the same count and under the same terms, the figure for `CCNC(=O)c1ccc(C=C2CC3CCC(C2)N3Cc2c[nH]cn2)cc1` [Cpd 46] is 6520 nM.
`CCNC(=O)c1ccc(C(=C2CC3CCC(C2)N3CC=C(C)C)c2cccc(C(=O)O)c2)cc1` [Cpd 47, 3{(4-Ethylcarbamoyl-phenyl)-[8-(3-methyl-but-2-enyl)-8-aza-bicyclo[3.2.1]oct-3-ylidene]-methyl}-benzoic acid] registered a Ki of 12.6 nM.
Still for that read-out and setting: the figure for `CCN(CC)C(=O)c1ccc(C=C2CC3CCC(C2)N3)cc1` [Cpd 48, 4-(8-Aza-bicyclo[3.2.1]oct-3-ylidenemethyl)-N,N-diethylbenzamide] is 4040 nM.
On the same count and under the same terms, the figure for `CCN(CC)C(=O)c1ccc(C(Br)=C2CC3CCC(C2)N3)cc1` [Cpd 49, 4-[(8-Aza-bicyclo[3.2.1]oct-3-ylidene)-bromo-methyl]-N,N-diethylbenzamide] is 23.7 nM.
Still for that read-out and setting: the figure for `CCNC(=O)c1ccc(C=C2CC3CCC(C2)N3CCc2ccccc2)cc1` [Cpd 50, N-Ethyl-4-(8-phenethyl-8-aza-bicyclo[3.2.1]oct-3-ylidenemethyl)-benzamide] is 412 nM; for `CCNC(=O)c1ccc(C=C2CC3CCC(C2)N3Cc2ccc3c(c2)OCO3)cc1` [Cpd 54] it is 10000 nM; for `CCNC(=O)c1ccc(C=C2CC3CCC(C2)N3CC=C(C)C)cc1` [Cpd 55] it is 1060 nM.
The molecule `CCNC(=O)c1ccc(C=C2CC3CCC(C2)N3Cc2ccccn2)cc1` [Cpd 56] had a Ki of 10200 nM.

The assay is the same for the next values; noted with them: rat brain δ opioid receptor binding; 10 nM solutions of the compounds; read-out: DOR binding Ki.
For the molecule `CCNC(=O)c1ccc(C(=C2CC3CCC(C2)N3CC=C(C)C)c2cccc(C(=O)O)c2)cc1` (single isomer, unassigned) [Cpd 44], the Ki turned out to be 2.2 nM.
Still for that read-out and setting: the figure for `CCNC(=O)c1ccc(C(=C2CC3CCC(C2)N3CC=C(C)C)c2cccc(C(=O)O)c2)cc1` (single isomer, unassigned) [Cpd 45] is 29.8 nM; for `CCNC(=O)c1ccc(C(=C2CC3CCC(C2)N3Cc2ccsc2)c2ccc(CO)cc2)cc1` (single isomer, unassigned) [Cpd 206] it is 16.8 nM.
On the same count and under the same terms, the figure for `CCNC(=O)c1ccc(C(=C2CC3CCC(C2)N3Cc2ccsc2)c2ccc3c(c2)OCO3)cc1` [Cpd 7] is 1.3 nM.
`CCNC(=O)c1ccc(C(=C2CC3CCC(C2)N3Cc2ccoc2)c2ccc3c(c2)OCO3)cc1` [Cpd 10]: the Ki is 1.08 nM.
Same read-out and setting: the figure for `CCNC(=O)c1ccc(C(=C2CC3CCC(C2)N3Cc2ccc3ccccc3n2)c2ccccn2)cc1` [Cpd 13] is 18.4 nM; for `CCNC(=O)c1ccc(C(=C2CC3CCC(C2)N3Cc2ccsc2)c2cnc3ccccc3c2)cc1` [Cpd 15] it is 11.4 nM; for `CCNC(=O)c1ccc(C(=C2CC3CCC(C2)N3Cc2ccco2)c2cnc3ccccc3c2)cc1` [Cpd 16] it is 4.69 nM.
Still for that read-out and setting: the figure for `CCNC(=O)c1ccc(C(Br)=C2CC3CCC(C2)N3Cc2ccc(NC(C)=O)cc2)cc1` [Cpd 21] is 109 nM; for `CCNC(=O)c1ccc(C(Br)=C2CC3CCC(C2)N3Cc2ccsc2)cc1` [Cpd 23] it is 6.92 nM; for `CCNC(=O)c1ccc(C(Br)=C2CC3CCC(C2)N3Cc2ccco2)cc1` [Cpd 24] it is 22.4 nM.
Same read-out and setting: the value for `CCNC(=O)c1ccc(C(Br)=C2CC3CCC(C2)N3Cc2ccc3ccccc3n2)cc1` [Cpd 25] was 99.2 nM; that for `CCNC(=O)c1ccc(C(Br)=C2CC3CCC(C2)N3Cc2sccc2C)cc1` [Cpd 28] was 72.8 nM; that for `CCNC(=O)c1ccc(C=C2CC3CCC(C2)N3Cc2ncc[nH]2)cc1` [Cpd 32] was 250 nM.
Take `CCNC(=O)c1ccc(C=C2CC3CCC(C2)N3Cc2ccc3ccccc3n2)cc1` [Cpd 35]: the Ki came out at 5180 nM.
Same read-out and setting: the value for `CCNC(=O)c1ccc(C=C2CC3CCC(C2)N3Cc2ccoc2)cc1` [Cpd 36] was 92.8 nM.
In the case of `CCNC(=O)c1ccc(C=C2CC3CCC(C2)N3Cc2sccc2C)cc1` [Cpd 38], the Ki amounted to 5100 nM.
On the same count and under the same terms, the value for `CCNC(=O)c1ccc(C(Br)=C2CC3CCC(C2)N3Cc2c[nH]cn2)cc1` [Cpd 39] was 90.2 nM; that for `CCN(CC)C(=O)c1ccc(C=C2CC3CCC(C2)N3Cc2ccsc2)cc1` [Cpd 52] was 151 nM.
Turning to `CCCCN1C2CCC1CC(=Cc1ccc(C(=O)NCC)cc1)C2` [Cpd 53], the Ki is 295 nM.
